# Measurements taken from the supplement of paper PMC8728848.
# Some of the results follow.
# B1: Gal 2 (Canis lupus) (protein)
# chain: MSGKFEVMNMDMKLGGTLKIKGKIAGDADGFVINLGQGSDKLNLHFNPRFHESVIVCNSRNWGQEQRDKHMCFSPGSEVKFTVTFENDGFKVKLPDGHQLTFPNRLGHSHLSYLGVQGGLKVSSFKIE
# Key:
# Assay in all cases: glycan array binding signal (z-score within array); higher = stronger binding
# Conditions in all cases: glycan notation: IUPAC condensed, linker removed
# [1] = molecular target: Neu5Ac(a2-3)Gal(b1-4)[Fuc(a1-3)]GlcNAc(b1-3)GalNAc
# Summary of the method: (§1)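 The binding signal is a Z-score computed within each array and averaged over linkers. Arrays of the same protein sequence at different concentrations or buffers were also averaged together. Data originate from 3228 arrays in the Consortium for Functional Glycomics database, kept only where the protein sequence was available.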
# [2] = molecular target: Neu5Ac(a2-3)Gal(b1-4)[Fuc(a1-3)]GlcNAc(b1-6)[Gal(b1-3)]GalNAc
# Summary of the method: as §1
# [3] = molecular target: Neu5Ac(a2-3)Gal(b1-4)[Fuc(a1-3)]GlcNAc(b1-6)[Neu5Ac(a2-3)Gal(b1-3)]GalNAc
# Summary of the method: as §1
# [4] = molecular target: Neu5Ac(a2-3)Gal(b1-4)[Fuc(a1-3)]GlcNAc6S
# Summary of the method: as §1
# [5] = molecular target: Neu5Ac(a2-3)Gal6S(b1-4)GlcNAc
# Summary of the method: as §1
# [6] = molecular target: Neu5Ac(a2-3)Gal6S(b1-4)[Fuc(a1-3)]GlcNAc
# Summary of the method: as §1
# Neu5Ac(a2-3)GalNAc = molecular target: Neu5Ac(a2-3)GalNAc
# Summary of the method: as §1
# [7] = molecular target: Neu5Ac(a2-3)GalNAc(b1-4)GlcNAc
# Summary of the method: as §1
# [8] = molecular target: Neu5Ac(a2-3)[GalNAc(b1-4)]Gal(b1-4)Glc
# Summary of the method: as §1
# [9] = molecular target: Neu5Ac(a2-3)[GalNAc(b1-4)]Gal(b1-4)GlcNAc
# Summary of the method: as §1
# [10] = molecular target: Neu5Ac(a2-3)[GalNAc(b1-4)]Gal(b1-4)GlcNAc(b1-3)GalNAc
# Summary of the method: as §1
# [11] = molecular target: Neu5Ac(a2-3)[Neu5Ac(a2-6)]GalNAc
# Summary of the method: as §1
# Neu5Ac(a2-6)Gal = molecular target: Neu5Ac(a2-6)Gal
# Summary of the method: as §1
# [12] = molecular target: Neu5Ac(a2-6)Gal(b1-3)GlcNAc(b1-3)[Gal(b1-4)GlcNAc(b1-6)]Gal(b1-4)Glc
# Summary of the method: as §1
# Neu5Ac(a2-6)Gal(b1-4)Glc = molecular target: Neu5Ac(a2-6)Gal(b1-4)Glc
# Summary of the method: as §1
# [13] = molecular target: Neu5Ac(a2-6)Gal(b1-4)GlcNAc
# Summary of the method: as §1
# [14] = molecular target: Neu5Ac(a2-6)Gal(b1-4)GlcNAc(b1-2)Man(a1-3)Man(b1-4)GlcNAc(b1-4)GlcNAc
# Summary of the method: as §1
# [15] = molecular target: Neu5Ac(a2-6)Gal(b1-4)GlcNAc(b1-2)Man(a1-3)[Gal(b1-4)GlcNAc(b1-2)Man(a1-6)]Man(b1-4)GlcNAc(b1-4)GlcNAc
# Summary of the method: as §1
# [16] = molecular target: Neu5Ac(a2-6)Gal(b1-4)GlcNAc(b1-2)Man(a1-3)[GlcNAc(b1-2)Man(a1-6)]Man(b1-4)GlcNAc(b1-4)GlcNAc
# Summary of the method: as §1
# [17] = molecular target: Neu5Ac(a2-6)Gal(b1-4)GlcNAc(b1-2)Man(a1-3)[GlcNAc(b1-2)Man(b1-4)GlcNAc(b1-2)Man(a1-6)]Man(b1-4)GlcNAc(b1-4)GlcNAc
# Summary of the method: as §1
# [18] = molecular target: Neu5Ac(a2-6)Gal(b1-4)GlcNAc(b1-2)Man(a1-3)[Man(a1-6)]Man(b1-4)GlcNAc(b1-4)GlcNAc
# Summary of the method: as §1
# [19] = molecular target: Neu5Ac(a2-6)Gal(b1-4)GlcNAc(b1-2)Man(a1-3)[Neu5Ac(a2-6)Gal(b1-4)GlcNAc(b1-2)Man(a1-6)]Man(b1-4)GlcNAc(b1-4)GlcNAc
# Summary of the method: as §1
# [20] = molecular target: Neu5Ac(a2-6)Gal(b1-4)GlcNAc(b1-2)Man(a1-6)Man(b1-4)GlcNAc(b1-4)GlcNAc
# Summary of the method: as §1
# [21] = molecular target: Neu5Ac(a2-6)Gal(b1-4)GlcNAc(b1-2)Man(a1-6)[Gal(b1-4)GlcNAc(b1-2)Man(a1-3)]Man(b1-4)GlcNAc(b1-4)GlcNAc
# Summary of the method: as §1
# [22] = molecular target: Neu5Ac(a2-6)Gal(b1-4)GlcNAc(b1-2)Man(a1-6)[GlcNAc(b1-2)Man(a1-3)]Man(b1-4)GlcNAc(b1-4)GlcNAc
# Summary of the method: as §1
# [23] = molecular target: Neu5Ac(a2-6)Gal(b1-4)GlcNAc(b1-2)Man(a1-6)[Man(a1-3)]Man(b1-4)GlcNAc(b1-4)GlcNAc
# Summary of the method: as §1
# [24] = molecular target: Neu5Ac(a2-6)Gal(b1-4)GlcNAc(b1-3)Gal(b1-3)GlcNAc
# Summary of the method: as §1
# [25] = molecular target: Neu5Ac(a2-6)Gal(b1-4)GlcNAc(b1-3)Gal(b1-4)GlcNAc
# Summary of the method: as §1
binder,measurement,setting,value
B1,glycan array binding signal (z-score),[1],1.21
same,glycan array binding signal (z-score),[2],0.092
same,glycan array binding signal (z-score),[3],0.142
same,glycan array binding signal (z-score),[4],0.098
same,glycan array binding signal (z-score),[5],0.103
same,glycan array binding signal (z-score),[6],-0.368
same,glycan array binding signal (z-score),Neu5Ac(a2-3)GalNAc,0.233
same,glycan array binding signal (z-score),[7],0.284
same,glycan array binding signal (z-score),[8],-0.298
same,glycan array binding signal (z-score),[9],-0.199
same,glycan array binding signal (z-score),[10],0.103
same,glycan array binding signal (z-score),[11],-0.387
same,glycan array binding signal (z-score),Neu5Ac(a2-6)Gal,0.292
same,glycan array binding signal (z-score),[12],-0.515
same,glycan array binding signal (z-score),Neu5Ac(a2-6)Gal(b1-4)Glc,0.01
same,glycan array binding signal (z-score),[13],-0.063
same,glycan array binding signal (z-score),[14],-0.182
same,glycan array binding signal (z-score),[15],-0.201
same,glycan array binding signal (z-score),[16],-0.18
same,glycan array binding signal (z-score),[17],-0.008
same,glycan array binding signal (z-score),[18],-0.076
same,glycan array binding signal (z-score),[19],0.083
same,glycan array binding signal (z-score),[20],-0.155
same,glycan array binding signal (z-score),[21],-0.092
same,glycan array binding signal (z-score),[22],-0.361
same,glycan array binding signal (z-score),[23],-0.144
same,glycan array binding signal (z-score),[24],0.03
same,glycan array binding signal (z-score),[25],0.189
